Assay results reported in a collection of fitness landscapes (doi:10.1016/j.celrep.2020.107928).
The full ranking holds about 81,000 sequences; the median of “one-hybrid fitness for binding NBS DNA” is about -0.1, and the highest 2% start at about 0.36. The list shows a part of the results.

B1: Caulobacter ParB omega fusion; a variant is named by its letters at X, in order, B8GW30 (parent)
chain: MESVVVGEPGMSEGRRGLGRGLSALLGEVDAAPAQAPGEQLGGSREAPIEILQRNPDQPRRTFREEDLEDLSNSIREKGVLQPILVRPSPDTAGEYQIVAGERAWRAAQRAGLKTVPIMVRELDDLAVLEIGIIENVQRADLNVLEEALSYKVLMEKFERTQENIAQTIGKSXSHVANXMRLLXLPDEVQSYLVSGELTAXHARAIAAAADPVALAKQIIEGGLSVRETEALARKAPNLSAGKSKGGRPPRVKDTDTQALESDLSSVLGLDVSIDHRGSTGTLTITYATLEQLDDLCNRLTRGI

Variants of: B1
Assay: one-hybrid fitness for binding NBS DNA (the Noc-binding site; scaled: cognate 1, non-cognate 0); higher = stronger binding
Details: with NBS DNA site
In short: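 Values were rescaled so that cognate is 1 and non-cognate is 0. Each is a fitness, the log change in a variant's read ratio to wild type from Illumina reads of plasmids before and after selection, with three replicate libraries pooled and variants under 10 reads dropped. Selection of the Caulobacter ParB libraries, four specificity codons randomised, used E. coli USO with a HIS3 reporter, site 19 bp from the promoter, on M9-minus-histidine with 0.1 mM IPTG and 5 mM 3-AT for 48 hours at 37°C.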

Row | Variant | one-hybrid fitness for binding NBS DNA
1 | QIHD | ≤ 0.2
2 | WDSG | ≤ 0.2
3 | NAMD | ≤ 0.2
4 | DWKF | ≤ 0.2
5 | RHKM | 0.203
6 | EMIS | ≤ 0.2
7 | AATH | ≤ 0.2
8 | QFTA | ≤ 0.2
9 | HDYC | ≤ 0.2
10 | MFGS | ≤ 0.2
11 | WVPI | ≤ 0.2
12 | WPAR | ≤ 0.2
13 | AFTY | ≤ 0.2
14 | DIPS | ≤ 0.2
15 | NVLP | ≤ 0.2
16 | GRQF | ≤ 0.2
17 | YHSR | ≤ 0.2
18 | QADH | 0.204
19 | FKKC | ≤ 0.2
20 | LYNE | ≤ 0.2
21 | RLYV | ≤ 0.2
22 | TGRL | ≤ 0.2
23 | NSSL | ≤ 0.2
24 | RRFS | 0.666

Row | Variant | one-hybrid fitness for binding NBS DNA
25 | QLCR | 0.468
26 | AWWV | ≤ 0.2
27 | DTTS | ≤ 0.2
28 | FVHG | ≤ 0.2
29 | DNDR | ≤ 0.2
30 | MYKA | ≤ 0.2
31 | TPIE | ≤ 0.2
32 | TELA | ≤ 0.2
33 | TFHG | ≤ 0.2
34 | FPHS | ≤ 0.2
35 | DLSL | ≤ 0.2
36 | WEYM | ≤ 0.2
37 | VATY | ≤ 0.2
38 | NVTP | ≤ 0.2
39 | KEND | ≤ 0.2
40 | QKCC | ≤ 0.2
41 | YWLT | ≤ 0.2
42 | RRLD | ≤ 0.2
43 | TACL | ≤ 0.2
44 | YDCT | ≤ 0.2
45 | TVGW | ≤ 0.2
46 | QFTR | 0.287
47 | GLWR | ≤ 0.2
48 | FGPF | ≤ 0.2

Row | Variant | one-hybrid fitness for binding NBS DNA
49 | YGSP | ≤ 0.2
50 | TPVQ | 0.763
51 | SYSK | ≤ 0.2
52 | ASPA | ≤ 0.2
53 | GFST | ≤ 0.2
54 | QQSY | 0.21
55 | TSAP | ≤ 0.2
56 | KPPA | ≤ 0.2
57 | LRMG | ≤ 0.2
58 | NILS | ≤ 0.2
59 | TGYI | ≤ 0.2
60 | FTSL | ≤ 0.2
61 | TYVN | ≤ 0.2
62 | MRQT | ≤ 0.2
63 | PRYF | ≤ 0.2
64 | CILG | ≤ 0.2
65 | RGMD | ≤ 0.2
66 | RNRR | 0.504
67 | GGTA | ≤ 0.2
68 | IQSR | ≤ 0.2
69 | NYDR | ≤ 0.2
70 | PKSG | ≤ 0.2
71 | RMFC | ≤ 0.2
72 | VQMM | ≤ 0.2

Row | Variant | one-hybrid fitness for binding NBS DNA
73 | PKRN | ≤ 0.2
74 | TMAG | ≤ 0.2
75 | VCLI | ≤ 0.2
76 | GCDC | ≤ 0.2
77 | LWKN | ≤ 0.2
78 | IRMS | ≤ 0.2
79 | ILIH | ≤ 0.2
80 | EWDA | ≤ 0.2
81 | HQRC | ≤ 0.2
82 | YFMT | ≤ 0.2
83 | SFFR | ≤ 0.2
84 | KRHD | ≤ 0.2
85 | MREN | ≤ 0.2
86 | DFSG | ≤ 0.2
87 | THPT | ≤ 0.2
88 | ARIN | ≤ 0.2
89 | REAN | ≤ 0.2
90 | HDAG | ≤ 0.2
91 | HMKG | ≤ 0.2
92 | INAG | ≤ 0.2
93 | PWRI | ≤ 0.2
94 | EGHK | ≤ 0.2
95 | YCAA | ≤ 0.2
96 | WQLG | ≤ 0.2

Row | Variant | one-hybrid fitness for binding NBS DNA
97 | QVKK | 0.221
98 | QCGQ | 0.24
99 | CGAF | ≤ 0.2
100 | KHKA | ≤ 0.2
101 | HRRQ | ≤ 0.2
102 | FVSR | ≤ 0.2
103 | PMEF | ≤ 0.2
104 | KTNT | 0.226
105 | VGAS | ≤ 0.2
106 | SNIK | ≤ 0.2
107 | FWPY | ≤ 0.2
108 | KVPW | ≤ 0.2
109 | SYRL | ≤ 0.2
110 | VWER | ≤ 0.2
111 | KIAI | ≤ 0.2
112 | GAAT | ≤ 0.2
113 | NYLL | ≤ 0.2
114 | WTDD | ≤ 0.2
115 | WLRT | ≤ 0.2
116 | LTDT | ≤ 0.2
117 | NSVR | ≤ 0.2
118 | IVRW | ≤ 0.2
119 | SPYS | ≤ 0.2
120 | IYTC | ≤ 0.2

Row | Variant | one-hybrid fitness for binding NBS DNA
121 | GLRF | ≤ 0.2
122 | LQFT | ≤ 0.2
123 | FCTC | ≤ 0.2
124 | LWER | ≤ 0.2
125 | TLAL | ≤ 0.2
126 | PSWM | ≤ 0.2
127 | NILG | ≤ 0.2
128 | TPPA | ≤ 0.2
129 | PTQA | ≤ 0.2
130 | RVTG | ≤ 0.2
131 | PAVL | ≤ 0.2
132 | PCET | ≤ 0.2
133 | CKSF | ≤ 0.2
134 | DGDP | ≤ 0.2
135 | YSAW | ≤ 0.2
136 | VAKL | ≤ 0.2
137 | IVKS | ≤ 0.2
138 | NMPA | ≤ 0.2
139 | KTIC | ≤ 0.2
140 | TADS | ≤ 0.2
141 | ECLG | ≤ 0.2
142 | GRMF | ≤ 0.2
143 | HLPI | ≤ 0.2
144 | NLPM | ≤ 0.2

Row | Variant | one-hybrid fitness for binding NBS DNA
145 | VRKT | 0.393
146 | GWPW | ≤ 0.2
147 | SYVG | ≤ 0.2
148 | SAYV | ≤ 0.2
149 | SVEV | ≤ 0.2
150 | GPHS | ≤ 0.2
151 | CHQA | ≤ 0.2
152 | YHWR | ≤ 0.2
153 | AKIM | ≤ 0.2
154 | KQQC | ≤ 0.2
155 | ALPI | ≤ 0.2
156 | GPWM | ≤ 0.2
157 | ILGV | ≤ 0.2
158 | PIGA | ≤ 0.2
159 | KWRC | ≤ 0.2
160 | STRN | ≤ 0.2
161 | QTSF | ≤ 0.2
162 | IHDA | ≤ 0.2
163 | IGVR | ≤ 0.2
164 | PTKY | ≤ 0.2
165 | YVAW | ≤ 0.2
166 | LDLC | ≤ 0.2
167 | NITD | ≤ 0.2
168 | MYHS | ≤ 0.2

Row | Variant | one-hybrid fitness for binding NBS DNA
169 | FPKS | ≤ 0.2
170 | LPTL | ≤ 0.2
171 | SNSE | ≤ 0.2
172 | SHHP | ≤ 0.2
173 | IMYD | ≤ 0.2
174 | DGVK | ≤ 0.2
175 | RQVS | 0.211
176 | PAIC | ≤ 0.2
177 | QYAY | ≤ 0.2
178 | NICT | ≤ 0.2
179 | HFMG | ≤ 0.2
180 | HYLY | ≤ 0.2
181 | AFTE | ≤ 0.2
182 | QPSS | ≤ 0.2
183 | YCSF | ≤ 0.2
184 | RERK | ≤ 0.2
185 | QCGN | ≤ 0.2
186 | FICS | ≤ 0.2
187 | ADPR | ≤ 0.2
188 | VKYA | ≤ 0.2
189 | IKTF | ≤ 0.2
190 | MHLI | ≤ 0.2
191 | TLVG | ≤ 0.2
192 | KCEI | ≤ 0.2

Row | Variant | one-hybrid fitness for binding NBS DNA
193 | RKWW | ≤ 0.2
194 | AEPE | ≤ 0.2
195 | HVDR | ≤ 0.2
196 | NYNT | ≤ 0.2
197 | DDRY | ≤ 0.2
198 | MCKR | ≤ 0.2
199 | TKPR | ≤ 0.2
200 | DKQI | ≤ 0.2
201 | PACS | ≤ 0.2
202 | CMNP | ≤ 0.2
203 | QKGI | ≤ 0.2
204 | DYGT | ≤ 0.2
205 | LMTQ | ≤ 0.2
206 | RSNS | 0.508
207 | FDKR | ≤ 0.2
208 | GIEL | ≤ 0.2
209 | SAVY | ≤ 0.2
210 | TLIG | ≤ 0.2
211 | WQQR | ≤ 0.2
212 | QTKD | 0.398
213 | TCHV | ≤ 0.2
214 | APYH | ≤ 0.2
215 | DHTG | ≤ 0.2
216 | TSSD | ≤ 0.2

Row | Variant | one-hybrid fitness for binding NBS DNA
217 | GPTR | ≤ 0.2
218 | MQVH | ≤ 0.2
219 | RFGW | ≤ 0.2
220 | SRTG | ≤ 0.2
221 | HSCW | ≤ 0.2
222 | DVDT | ≤ 0.2
223 | VKRT | ≤ 0.2
224 | DIGG | 0.262
225 | SGQG | ≤ 0.2
226 | HDLD | ≤ 0.2
227 | TPMV | ≤ 0.2
228 | DYWS | ≤ 0.2
229 | VKHD | ≤ 0.2
230 | QTEW | ≤ 0.2
231 | IWAS | ≤ 0.2
232 | RQPG | ≤ 0.2
233 | SPRW | ≤ 0.2
234 | TREP | ≤ 0.2
235 | APLV | ≤ 0.2
236 | CQTP | ≤ 0.2
237 | NGVL | ≤ 0.2
238 | WQDG | ≤ 0.2
239 | ADNQ | ≤ 0.2
240 | QPFT | ≤ 0.2

Row | Variant | one-hybrid fitness for binding NBS DNA
241 | GGHV | ≤ 0.2
242 | TGHT | ≤ 0.2
243 | CIEL | ≤ 0.2
244 | KSHI | ≤ 0.2
245 | APRC | ≤ 0.2
246 | CFTY | ≤ 0.2
247 | WSRY | ≤ 0.2
248 | EPQG | ≤ 0.2
249 | KKMS | ≤ 0.2
250 | FDRF | ≤ 0.2
251 | RCHI | ≤ 0.2
252 | RHWP | ≤ 0.2
253 | TIDC | ≤ 0.2
254 | TPAT | ≤ 0.2
255 | GGVS | ≤ 0.2
256 | SGSW | ≤ 0.2
257 | NHMG | ≤ 0.2
258 | CPQS | ≤ 0.2
259 | RHGC | ≤ 0.2
260 | WVIS | ≤ 0.2
261 | GHGR | ≤ 0.2
262 | RGAQ | ≤ 0.2
263 | NPRH | ≤ 0.2
264 | PMKI | ≤ 0.2

Row | Variant | one-hybrid fitness for binding NBS DNA
265 | KLHK | ≤ 0.2
266 | MCWG | ≤ 0.2
267 | EGKC | ≤ 0.2
268 | RRMH | 0.403
269 | QNMS | ≤ 0.2
270 | NESR | ≤ 0.2
271 | QTHF | ≤ 0.2
272 | YRKK | ≤ 0.2
273 | GALN | ≤ 0.2
274 | FMIR | ≤ 0.2
275 | HLRY | ≤ 0.2
276 | EGPF | ≤ 0.2
277 | FFVS | ≤ 0.2
278 | ISEC | ≤ 0.2
279 | ESRA | ≤ 0.2
280 | DQYR | ≤ 0.2
281 | HDTN | ≤ 0.2
282 | GFSS | ≤ 0.2
283 | SHIK | ≤ 0.2
284 | SGVA | ≤ 0.2
285 | FVAG | ≤ 0.2
286 | KTLR | ≤ 0.2
287 | EARP | ≤ 0.2
288 | KVAR | ≤ 0.2

Row | Variant | one-hybrid fitness for binding NBS DNA
289 | DIHE | ≤ 0.2
290 | CLMF | ≤ 0.2
291 | VESW | ≤ 0.2
292 | TPKN | ≤ 0.2
293 | FGKR | 0.34
294 | PADY | ≤ 0.2
295 | SSVF | ≤ 0.2
296 | TLCN | ≤ 0.2
297 | PCLF | ≤ 0.2
298 | PPCA | ≤ 0.2
299 | AWPY | ≤ 0.2
300 | KRMF | ≤ 0.2
301 | KDHT | ≤ 0.2
302 | SHKF | ≤ 0.2
303 | PQCN | ≤ 0.2
304 | TMPW | ≤ 0.2
305 | IMNR | ≤ 0.2
306 | HDNG | ≤ 0.2
